B1: Q9UKT9 (peptide)
chain: FDCDQCGAWFTQKGNLLRHIKL
B2: Q9UKT9 (peptide)
chain: FNCDQCGARFTQKGNLLRHIKL
B3: Q9UKT9 (peptide)
chain: LLCEICGFSCTQKGNLLRHIKL
B4: Q9UKT9 (peptide)
chain: FDCEVCGAYFTQKGNLLRHIKL
B5: Q9UKT9 (peptide)
chain: FRCEQCGADFTQKGNLLRHIKL
B6: Q9UKT9 (peptide)
chain: LICEICGFNCTQKGNLLRHIKL
B7: Q9UKT9 (peptide)
chain: FMCEICGRWFTQKGNLLRHIKL
B8: Q9UKT9 (peptide)
chain: FDCEICGARFTQKGNLLRHIKL
B9: Q9UKT9 (peptide)
chain: FACNVCGASFTQKGNLLRHIKL
B10: Q9UKT9 (peptide)
chain: FFCEQCGAMFTQKGNLLRHIKL
B11: Q9UKT9 (peptide)
chain: FSCDQCGAYFTQKGNLLRHIKL
B12: Q9UKT9 (peptide)
chain: FECPICGRAFTQKGNLLRHIKL
B13: Q9UKT9 (peptide)
chain: FYCEICGHNFTQKGNLLRHIKL
B14: Q9UKT9 (peptide)
chain: FACEQCGAKFTQKGNLLRHIKL
B15: Q9UKT9 (peptide)
chain: FKCDICGATFTQKGNLLRHIKL
B16: Q9UKT9 (peptide)
chain: LHCEICGFGCTQKGNLLRHIKL
B17: Q9UKT9 (peptide)
chain: FFCEICGRVFTQKGNLLRHIKL
B18: Q9UKT9 (peptide)
chain: FNCPICGRMFTQKGNLLRHIKL
B19: Q9UKT9 (peptide)
chain: FQCPICGRMFTQKGNLLRHIKL
B20: Q9UKT9 (peptide)
chain: FGCPICGHRFTQKGNLLRHIKL
B21: Q9UKT9 (peptide)
chain: LKCEICGFPCTQKGNLLRHIKL
B22: Q9UKT9 (peptide)
chain: FKCPVCGASFTQKGNLLRHIKL
B23: Q9UKT9 (peptide)
chain: FLCEVCGAPFTQKGNLLRHIKL
B24: Q9UKT9 (peptide)
chain: FMCDVCGAWFTQKGNLLRHIKL
B25: Q9UKT9 (peptide)
chain: FQCEICGAHFTQKGNLLRHIKL
B26: Q9UKT9 (peptide)
chain: FVCEICGRGFTQKGNLLRHIKL
B27: Q9UKT9 (peptide)
chain: FGCNQCGRAFTQKGNLLRHIKL
B28: Q9UKT9 (peptide)
chain: FMCDICGAQFTQKGNLLRHIKL
B29: Q9UKT9 (peptide)
chain: FECDICGAIFTQKGNLLRHIKL
B30: Q9UKT9 (peptide)
chain: FYCEVCGAQFTQKGNLLRHIKL
B31: Q9UKT9 (peptide)
chain: FLCEICGHNFTQKGNLLRHIKL
B32: Q9UKT9 (peptide)
chain: FVCEVCGAEFTQKGNLLRHIKL

The list shows a part of the results.
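Also: jurkat cells carrying a lentiviral library of mutant zinc finger degrons fused to EGFP plus mCherry, mCherry+ cells FACS sorted, degron abundance counted by next-generation sequencing.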

The assay concerns the target no compound (DMSO). Nature of the assay: log2 fold change of degron read counts, EGFP-low vs EGFP+ sorted cells; higher = lower degron-EGFP level without compound (poor expression or instability). As to conditions: compound: DMSO control; 18 h.
Take B1: the “log2 fold change of degron read counts” value was 0.113.

Regarding B2, the “log2 fold change of degron read counts” value is -1.25.

As to B3, the “log2 fold change of degron read counts” value was -0.172.

For the sequence B4, the “log2 fold change of degron read counts” value was -0.271.

Take B5: the “log2 fold change of degron read counts” value is -3.12.

In the case of B6, the “log2 fold change of degron read counts” value was -0.714.

In the case of B7, the “log2 fold change of degron read counts” value turned out to be 0.0147.

Turning to B8, the “log2 fold change of degron read counts” value was -1.44.

B9: the “log2 fold change of degron read counts” value is -0.984.

For the sequence B10, the “log2 fold change of degron read counts” value was -0.62.

Consider B11, for which the “log2 fold change of degron read counts” value is -1.42.

Regarding B12, the “log2 fold change of degron read counts” value is -0.528.

Consider B13, for which the “log2 fold change of degron read counts” value is -0.4.

As to B14, the “log2 fold change of degron read counts” value was -2.25.

Regarding B15, the “log2 fold change of degron read counts” value is -2.86.

Turning to B16, the “log2 fold change of degron read counts” value stood at 0.00382.

In the case of B17, the “log2 fold change of degron read counts” value was -0.905.

With B18, the “log2 fold change of degron read counts” value stood at 0.0456.

For the sequence B19, the “log2 fold change of degron read counts” value was found to be 0.364.

Take B20: the “log2 fold change of degron read counts” value is -0.0281.

As to B21, the “log2 fold change of degron read counts” value came to 0.454.

Regarding B22, the “log2 fold change of degron read counts” value is -0.509.

For the sequence B23, the “log2 fold change of degron read counts” value is -1.38.

Regarding B24, the “log2 fold change of degron read counts” value was -0.685.

As for B25, the “log2 fold change of degron read counts” value is -1.41.

As for B26, the “log2 fold change of degron read counts” value is -2.35.

Turning to B27, the “log2 fold change of degron read counts” value was 0.395.

As for B28, the “log2 fold change of degron read counts” value is -1.91.

B29: the “log2 fold change of degron read counts” value is -1.96.

B30: the “log2 fold change of degron read counts” value is -0.686.

With B31, the “log2 fold change of degron read counts” value was -1.31.

Consider B32, for which the “log2 fold change of degron read counts” value was -1.76.

For the origin of these results see the supplement of paper PMC12645437, “Orthogonal IMiD-Degron Pairs Induce Selective Protein Degradation in Cells” (ACS Chemical Biology, 2025).
